Laboratory results taken from the supplement of paper PMC3334620.
Whole data set: some 33,000 sequences, median “E-score (-0.5 to 0.5)” near -0.041, cut for the highest 2% near 0.37. The list shows a part of the results.

Biological target: T1, Ecm22 (UniProt Q05958)
T1 sequence: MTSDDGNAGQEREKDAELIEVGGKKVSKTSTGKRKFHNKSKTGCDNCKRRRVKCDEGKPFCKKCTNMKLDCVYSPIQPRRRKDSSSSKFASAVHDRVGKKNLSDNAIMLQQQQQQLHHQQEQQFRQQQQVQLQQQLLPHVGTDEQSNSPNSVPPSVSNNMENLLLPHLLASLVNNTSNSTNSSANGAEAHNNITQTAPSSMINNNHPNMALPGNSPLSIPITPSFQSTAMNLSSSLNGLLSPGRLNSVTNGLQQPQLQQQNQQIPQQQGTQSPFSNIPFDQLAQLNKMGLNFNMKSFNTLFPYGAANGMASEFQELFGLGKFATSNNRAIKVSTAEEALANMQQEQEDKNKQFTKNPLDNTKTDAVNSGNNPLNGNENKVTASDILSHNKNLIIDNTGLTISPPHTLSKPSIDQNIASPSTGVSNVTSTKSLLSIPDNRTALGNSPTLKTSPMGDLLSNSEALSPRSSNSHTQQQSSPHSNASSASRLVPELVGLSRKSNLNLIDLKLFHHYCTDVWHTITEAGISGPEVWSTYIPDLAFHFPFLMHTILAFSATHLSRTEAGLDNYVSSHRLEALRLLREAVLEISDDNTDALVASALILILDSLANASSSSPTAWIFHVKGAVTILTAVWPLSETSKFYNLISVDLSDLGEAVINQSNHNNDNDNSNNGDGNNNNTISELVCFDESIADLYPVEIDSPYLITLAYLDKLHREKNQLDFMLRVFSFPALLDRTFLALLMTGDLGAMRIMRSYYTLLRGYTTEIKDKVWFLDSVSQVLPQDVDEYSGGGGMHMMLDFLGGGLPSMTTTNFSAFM
Assay: PBM E-score (8-mer binding enrichment) (E-score (-0.5 to 0.5)); higher = stronger / more preferred TF binding; most listed sequences are background and not binding sites
Conditions: protein concentration: 200 nM; construct: GST-full length
Outline: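 PURExpress in vitro transcription/translation supplied GST-tagged yeast transcription factors, either full-length or DNA-binding domain. Applied at about 100-200 nM to universal all-10-mer Agilent arrays double-stranded by primer extension, the bound protein was detected with fluorescent anti-GST. E-scores, modified Wilcoxon-Mann-Whitney statistics, were given by the Universal PBM Analysis Suite to ungapped eight-base words pooled with their reverse complements after masliner normalisation.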

| Sequence | PBM E-score |
| --- | --- |
| ATGCTACA | -0.136 |
| CTATTGAC | -0.135 |
| CGTAAGAA | 0.301 |
| AGAGCTGC | -0.258 |
| GATAATCC | -0.0229 |
| AGTATAGC | 0.0261 |
| AGCGTTCG | 0.092 |
| ATAGGGCG | -0.0213 |
| ATAAGCCA | -0.134 |
| CGCCCACA | -0.138 |
| ACAGGTGG | 0.0303 |
| AGTGCGTC | -0.111 |
| CGCGTACA | 0.269 |
| GACCATAA | 0.154 |
| TAAAGGAA | 0.0949 |
| CGTAGACC | 0.0828 |
| GATTGTCC | 0.0499 |
| GCTCACGA | 0.0843 |
| CCGCCGGA | -0.173 |
| AACCAAGC | -0.104 |
| ATGCGTGA | -0.00845 |
| ATGCTGTC | -0.106 |
| AACCACGC | 0.0409 |
| ACAGTTAC | -0.0878 |

| Sequence | PBM E-score |
| --- | --- |
| CTATGGTA | -0.0556 |
| CGGTCGGA | 0.0409 |
| ACAATATC | 0.041 |
| ACACTAAC | -0.0602 |
| CACACCCA | 0.173 |
| ACTAGTGC | -0.178 |
| ATTTTTGG | -0.307 |
| CGATAGAC | -0.00215 |
| GTCTCCAA | -0.0632 |
| CCGACGTA | 0.208 |
| CCTCCTAC | -0.294 |
| GTACTAAA | 0.229 |
| CCCCGGAC | -0.121 |
| CACCCGGA | 0.0338 |
| CCACTCAG | -0.306 |
| CTTACAGC | -0.147 |
| CAACGGAG | -0.0525 |
| ATCGCCCC | -0.0764 |
| CTTACTAC | 0.118 |
| CAGGACTG | -0.233 |
| GGAGGGAC | -0.101 |
| TCCCTCGA | -0.0263 |
| CGAACGCG | 0.198 |
| GCAACTAA | 0.0306 |

| Sequence | PBM E-score |
| --- | --- |
| CGTTTCGC | 0.312 |
| AGTAAACA | 0.0411 |
| AGGCCTCA | -0.335 |
| CAAGAAGC | 0.0176 |
| GTCGTCTA | 0.183 |
| ACTAACGA | 0.264 |
| CGTCGTGA | 0.117 |
| GCCCCGCC | -0.0475 |
| CCTTCATA | -0.0479 |
| AGGGGACT | -0.258 |
| GTGCGCAA | -0.0309 |
| GAGTTAGC | 0.0305 |
| ACCTTTGG | -0.304 |
| GAAGCCCC | -0.00105 |
| GAAATACC | 0.0229 |
| AGGCAGGG | -0.0924 |
| AGGAGAGG | -0.231 |
| CAGCGAGC | 0.125 |
| ATAGGAAT | -0.00546 |
| CAGCATGG | -0.0597 |
| ATATGACC | -0.0946 |
| CTTCATGA | -0.158 |
| ACGCACCC | -0.096 |
| CTACGTTC | 0.182 |

| Sequence | PBM E-score |
| --- | --- |
| ATCAGAAT | -0.0284 |
| CTCTGTAC | 0.0079 |
| GAACGCTC | 0.0973 |
| AGCCCGCC | -0.00591 |
| AGCAATCA | -0.0791 |
| AATAATTC | 0.0898 |
| ATCCCTGC | -0.313 |
| AAATTAGG | -0.0791 |
| AGGACTAC | -0.186 |
| ACCCAGAA | -0.182 |
| GCCTCTGA | -0.28 |
| AAGAGTCC | -0.296 |
| ATTTAGGA | 0.0407 |
| CAGGCACC | -0.068 |
| ATAATGAA | 0.15 |
| CTCGTCAG | 0.104 |
| CCGCTCTC | -0.165 |
| ACATGCCA | 0.096 |
| CGCCTTGC | -0.344 |
| TGACGTAA | 0.0171 |
| AGGATTTG | -0.0619 |
| CGTCTTAG | -0.197 |
